This note sets out measurements from the supplement of paper PMC5998384.

The test system of series [1] is HeLa Kyoto. Description: solubility change mitosis vs G1/S (difference of NP-40 vs SDS log2 ratios) (log2 ratio difference); higher = more soluble in mitosis.
Series [2] relates to HeLa Kyoto. Description: melting temperature (median over replicates), in situ; higher = more thermally stable.
The subject of series [3] is HeLa Kyoto. Description: solubility in G1/S (NP-40 vs SDS abundance) (log2 ratio); higher = more soluble. Particulars: cell cycle stage: G1/S.
The subject of series [4] is HeLa Kyoto. The series is described as follows: thermal stability score vs G1/S (z-score of summed log2 fold changes over temperatures); higher = more thermally stable than in G1/S.
Where [5] appears, read: cell cycle stage: early G1 (4.5 h after nocodazole release).
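For melting temperature (median over replicates), in situ in this document: HeLa Kyoto cells synchronized by double thymidine or nocodazole block, proteins quantified by TMT10plex mass spectrometry, three independent biological replicates.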
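For solubility change mitosis vs G1/S (difference of NP-40 vs SDS log2 ratios) in this document: synchronized HeLa Kyoto cells (double thymidine block for G1/S, nocodazole release for mitosis), protein amounts in NP-40 versus SDS lysates quantified by mass spectrometry, three biological replicates.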
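For solubility in G1/S (NP-40 vs SDS abundance) in this document: HeLa Kyoto cells arrested at G1/S by double thymidine block, proteins quantified by TMT10plex mass spectrometry in mild NP-40 versus SDS extracts, three biological replicates.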
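For thermal stability score vs G1/S (z-score of summed log2 fold changes over temperatures) in this document: synchronized HeLa Kyoto cells, proteins quantified by TMT10plex mass spectrometry, three biological replicates, mitosis taken 0.5 h after nocodazole release, G1/S directly after double thymidine block.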

For “MDPNCSCAAGDSCTCAGSCKCKECKCTSCKKSCCSCCPVGCAKCAQGCICKGASDKCSCCA [MT2A]”, the “solubility change mitosis (log2)” value with HeLa Kyoto [1] was -0.309. In the series on HeLa Kyoto [2] (cell cycle stage: mitosis), this sequence had a melting temperature of 50.5 °C. The “solubility in G1/S (log2)” value in the series with HeLa Kyoto [3] amounted to 0.142. Further, the thermal stability score was 0.626 in the series on HeLa Kyoto [4] (setting [5]) and -2.98 in the series on HeLa Kyoto [4] (cell cycle stage: mitosis).

For “MEGLEENGGVVQVGELLPCKICGRTFFPVALKKHGPICQKTATKKRKTFDSSRQRAEGTDIPTVKPLKPRPEPPKKPSNWRRKHEEFIATIRAAKGLDQALKEGGKLPPPPPPSYDPDYIQCPYCQRRFNENAADRHINFCKEQAARISNKGKFSTDTKGKPTSRTQVYKPPALKKSNSPGTASSGSSRLPQPSGAGKTVVGVPSGKVSSSSSSLGNKLQTLSPSHKGIAAPHAGANVKPRNSTPPSLARNPAPGVLTNKRKTYTESYIARPDGDCASSLNGGNIKGIEGHSPGNLPKFCHECGTKYPVEWAKFCCECGIRRMIL [ZC2HC1A]”, the “solubility change mitosis (log2)” value with HeLa Kyoto [1] was 0.306. The “solubility in G1/S (log2)” value with HeLa Kyoto [3] was 0.351.

Regarding “MIRFILIQNRAGKTRLAKWYMQFDDDEKQKLIEEVHAVVTVRDAKHTNFVEFRNFKIIYRRYAGLYFCICVDVNDNNLAYLEAIHNFVEVLNEYFHNVCELDLVFNFYKVYTVVDEMFLAGEIRETSQTKVLKQLLMLQSLE [AP2S1]”, in the series with HeLa Kyoto [1], the “solubility change mitosis (log2)” value is -0.0592. Besides, the melting temperature in the series with HeLa Kyoto [2] (cell cycle stage: G1/S) amounted to 51.8 °C; in the series on HeLa Kyoto [2] (cell cycle stage: mitosis), 52.8 °C. Further, the “solubility in G1/S (log2)” value in the series with HeLa Kyoto [3] is -0.179. Further, the thermal stability score in the series with HeLa Kyoto [4] (setting [5]) was -0.917; in the series on HeLa Kyoto [4] (cell cycle stage: mitosis), 0.509.
